According to patent US20260207767A1 (ANAVEON, published 2026):

T1: His-tagged recombinant CD25 (UniProt P01589 22-213, limits assumed)
T1 construct: also called IL-2R alpha chain
T1 sequence (looked up): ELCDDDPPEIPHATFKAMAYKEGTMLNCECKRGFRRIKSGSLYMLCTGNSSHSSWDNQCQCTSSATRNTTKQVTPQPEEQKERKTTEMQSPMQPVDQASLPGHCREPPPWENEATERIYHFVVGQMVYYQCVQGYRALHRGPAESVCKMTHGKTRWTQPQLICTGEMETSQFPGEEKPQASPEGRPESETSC

T2: trimeric IL-2 receptor (CD25/CD122/CD132) on HEK-Blue IL-2 reporter cells (UniProt P01589 22-272; P14784 27-551; P31785 23-369, limits assumed)
T2 sequence (looked up) 1: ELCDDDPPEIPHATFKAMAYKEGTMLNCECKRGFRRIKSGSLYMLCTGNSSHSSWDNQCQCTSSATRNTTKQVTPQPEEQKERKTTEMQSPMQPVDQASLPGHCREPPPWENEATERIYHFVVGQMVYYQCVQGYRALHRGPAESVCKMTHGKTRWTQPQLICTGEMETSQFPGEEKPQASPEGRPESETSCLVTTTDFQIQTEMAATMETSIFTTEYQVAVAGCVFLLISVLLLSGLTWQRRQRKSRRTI
T2 sequence (looked up) 2: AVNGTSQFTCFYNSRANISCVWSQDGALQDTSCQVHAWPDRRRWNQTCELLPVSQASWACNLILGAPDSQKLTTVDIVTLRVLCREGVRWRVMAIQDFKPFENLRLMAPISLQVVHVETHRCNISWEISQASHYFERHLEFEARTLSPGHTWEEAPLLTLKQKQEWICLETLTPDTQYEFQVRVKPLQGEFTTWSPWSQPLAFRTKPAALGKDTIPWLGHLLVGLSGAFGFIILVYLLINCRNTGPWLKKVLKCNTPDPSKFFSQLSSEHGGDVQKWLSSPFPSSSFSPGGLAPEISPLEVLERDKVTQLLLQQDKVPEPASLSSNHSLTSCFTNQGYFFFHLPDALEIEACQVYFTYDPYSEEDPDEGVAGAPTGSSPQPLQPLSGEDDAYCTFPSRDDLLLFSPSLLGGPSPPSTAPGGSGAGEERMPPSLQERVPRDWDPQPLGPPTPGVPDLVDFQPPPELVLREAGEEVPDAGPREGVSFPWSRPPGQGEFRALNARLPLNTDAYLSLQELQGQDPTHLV
T2 sequence (looked up) 3: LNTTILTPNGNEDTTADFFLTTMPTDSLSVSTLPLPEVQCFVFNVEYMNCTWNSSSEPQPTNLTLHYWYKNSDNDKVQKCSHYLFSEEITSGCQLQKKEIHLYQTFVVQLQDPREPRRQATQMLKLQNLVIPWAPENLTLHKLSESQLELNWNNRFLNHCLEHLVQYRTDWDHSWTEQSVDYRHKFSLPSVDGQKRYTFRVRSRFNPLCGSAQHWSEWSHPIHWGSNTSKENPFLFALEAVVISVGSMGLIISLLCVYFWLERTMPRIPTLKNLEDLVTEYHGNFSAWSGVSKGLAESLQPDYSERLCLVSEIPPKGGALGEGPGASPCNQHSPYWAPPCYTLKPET

T3: high affinity trimeric IL-2R on CD4+CD25+FoxP3+ Treg cells of murine splenocytes (mouse, UniProt P01590 22-268; P16297 27-539; P34902 23-369)
T3 sequence (looked up) 1: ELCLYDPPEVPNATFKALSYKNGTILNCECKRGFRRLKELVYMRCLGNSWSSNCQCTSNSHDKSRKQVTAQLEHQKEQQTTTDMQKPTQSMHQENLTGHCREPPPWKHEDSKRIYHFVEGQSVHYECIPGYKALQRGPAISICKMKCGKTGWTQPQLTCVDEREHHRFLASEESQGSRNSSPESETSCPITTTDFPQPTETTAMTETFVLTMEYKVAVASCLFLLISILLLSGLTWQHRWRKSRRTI
T3 sequence (looked up) 2: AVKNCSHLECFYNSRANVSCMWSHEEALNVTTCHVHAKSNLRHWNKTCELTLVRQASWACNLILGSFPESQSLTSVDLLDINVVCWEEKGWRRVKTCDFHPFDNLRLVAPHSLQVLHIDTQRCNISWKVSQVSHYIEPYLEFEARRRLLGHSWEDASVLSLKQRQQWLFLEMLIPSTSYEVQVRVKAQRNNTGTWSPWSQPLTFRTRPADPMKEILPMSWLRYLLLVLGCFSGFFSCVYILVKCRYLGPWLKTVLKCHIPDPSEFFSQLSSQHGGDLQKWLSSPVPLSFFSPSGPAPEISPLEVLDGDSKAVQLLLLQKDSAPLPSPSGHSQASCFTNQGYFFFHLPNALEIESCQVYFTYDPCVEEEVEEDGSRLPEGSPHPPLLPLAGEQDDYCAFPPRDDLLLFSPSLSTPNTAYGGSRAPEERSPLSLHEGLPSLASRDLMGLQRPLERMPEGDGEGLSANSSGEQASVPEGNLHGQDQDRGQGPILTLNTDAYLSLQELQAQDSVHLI
T3 sequence (looked up) 3: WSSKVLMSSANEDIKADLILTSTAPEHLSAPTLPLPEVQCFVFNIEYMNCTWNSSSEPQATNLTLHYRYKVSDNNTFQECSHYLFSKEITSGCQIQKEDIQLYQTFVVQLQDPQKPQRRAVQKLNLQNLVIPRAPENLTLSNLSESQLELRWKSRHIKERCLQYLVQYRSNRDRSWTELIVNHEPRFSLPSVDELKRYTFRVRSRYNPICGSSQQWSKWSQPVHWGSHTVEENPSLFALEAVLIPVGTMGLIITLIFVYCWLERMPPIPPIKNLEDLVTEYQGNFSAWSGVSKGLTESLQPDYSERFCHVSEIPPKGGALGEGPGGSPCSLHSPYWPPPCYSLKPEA

B1: EAD406 (other)
heavy: EVQLVQSGAEVKKPGESLKISCKGSGYAFTNYLIEWVRQMPGKGLEWMGVINPGSGGTNYNEKFKGQVTISADKSISTAYLQWSSLKASDTAMYYCARWRGEGYYAYFDVWGQGTTVTVSSASTKGPSVFPLAPSSKSTSGGTAALGCLVKDYFPEPVTVSWNSGALTSGVHTFPAVLQSSGLYSLSSVVTVPSSSLGTQTYICNVNHKPSNTKVDKRV[not shown - human IgG1 Fc with changes]
light: AIRLTQSPSSFSASTGDRVTITCKASQSVDYNFHLRPRDLISNINVIVLELKGSETTFMCEYADETATIVEFLNRWITFSQSIISTLTPTSSSTKKTQLQLEHLLLDLQMILNGINNYKNPKLTRMLTFKFYMPKKATELKHLQCLEEELKPLEEVLNLAQSKGDSYMNWYQQKPGKAPKLLIYAASNLESGVPSRFSGSGSGTDFTLTISSLQSEDFATYYCQQSNEDPYTFGGGTKVEIKRTVAAPSVFIFPPSDEQLKSGTASVVCLLNNFYPREAKVQWKVDNALQSGNSQESVTEQDSKDSTYSLSSTLTLSKADYEKHKVYACEVTHQGLSSPVTKSFNRGEC
notes: also called EAD409
B2: XFO227 (other)
heavy: EVQLVQSGAEVKKPGESLKISCKGSGYAFTNYLIEWVRQMPGKGLEWMGVINPGSGGTNYNEKFKGQVTISADKSISTAYLQWSSLKASDTAMYYCARWRGEGYYAYFDVWGQGTTVTVSSASTKGPSVFPLAPSSKSTSGGTAALGCLVKDYFPEPVTVSWNSGALTSGVHTFPAVLQSSGLYSLSSVVTVPSSSLGTQTYICNVNHKPSNTKVDKRV[not shown - human IgG1 Fc with changes]
light: AIRLTQSPSSFSASTGDRVTITCKASQSVDYGGNFHLRPRDLISNINVIVLELKGSETTFMCEYADETATIVEFLNRWITFSQSIISTLTPTSSSTKKTQLQLEHLLLDLQMILNGINNYKNPKLTRMLTFKFYMPKKATELKHLQCLEEELKPLEEVLNLAQSKGGGDSYMNWYQQKPGKAPKLLIYAASNLESGVPSRFSGSGSGTDFTLTISSLQSEDFATYYCQQSNEDPYTFGGGTKVEIKRTVAAPSVFIFPPSDEQLKSGTASVVCLLNNFYPREAKVQWKVDNALQSGNSQESVTEQDSKDSTYSLSSTLTLSKADYEKHKVYACEVTHQGLSSPVTKSFNRGEC
notes: Antibody A IgG with IL-2CP in CDR-L1; also called XFQ227
B3: DRV470 (other)
heavy: EVQLVQSGAEVKKPGESLKISCKGSGYAFTNYLIEWVRQMPGKGLEWMGVINPGSGGTNYNEKFKGQVTISADKSISTAYLQWSSLKASDTAMYYCARWRGEGYYAYFDVWGQGTTVTVSSASTKGPSVFPLAPSSKSTSGGTAALGCLVKDYFPEPVTVSWNSGALTSGVHTFPAVLQSSGLYSLSSVVTVPSSSLGTQTYICNVNHKPSNTKVDKRV[not shown - human IgG1 Fc with changes]
light: AIRLTQSPSSFSASTGDRVTITCKASQSVDYGGGGSGGGGSGGGNFHLRPRDLISNINVIVLELKGSETTFMCEYADETATIVEFLNRWITFSQSIISTLTPTSSSTKKTQLQLEHLLLDLQMILNGINNYKNPKLTRMLTFKFYMPKKATELKHLQCLEEELKPLEEVLNLAQSKGGGGSGGGGSGGGGDSYMNWYQQKPGKAPKLLIYAASNLESGVPSRFSGSGSGTDFTLTISSLQSEDFATYYCQQSNEDPYTFGGGTKVEIKRTVAAPSVFIFPPSDEQLKSGTASVVCLLNNFYPREAKVQWKVDNALQSGNSQESVTEQDSKDSTYSLSSTLTLSKADYEKHKVYACEVTHQGLSSPVTKSFNRGEC
notes: Antibody A IgG with IL-2CP in CDR-L1

Target: T1, His-tagged recombinant CD25
Assay: SPR, CD25 captured

| binding result | Binder |
| --- | --- |
| no binding (tested: 500 nM) | B1 |
| no binding (tested: 500 nM) | B2 |
| no binding (tested: 500 nM) | B3 |

Target: anti-IL-2 antibody clone 5344
Assay: ELISA on clone 5344

| EC50 [nM] | Binder |
| --- | --- |
| 0.11 | B1 |
| 0.14 | B2 |
| 0.1 | B3 |

Target: T2, trimeric IL-2 receptor …
Assay: cell-based or functional assay

| EC50, HEK Blue IL-2 reporter assay (SEAP) [nM] | Binder |
| --- | --- |
| 0.00359 | B1 |
| 0.00303 | B2 |
| 0.00361 | B3 |

Target: IL-2R on NK cells and CD8+ T cells of murine splenocytes (C57BL/6) (mouse)
Assay: cell-based or functional assay

| EC50 CD8 cells (nM), pSTAT5 [nM] | EC50 NK cells (nM), pSTAT5 [nM] | Binder |
| --- | --- | --- |
| 15.7 | 5.2 | B1 |
| 8 | 2.7 | B2 |
| 7.9 | 2.4 | B3 |

Target: T3, high affinity trimeric IL-2R on …
Assay: cell-based or functional assay

| EC50 Treg cells (nM), pSTAT5 [nM] | Binder |
| --- | --- |
| 22 | B1 |
| 10.6 | B2 |
| 10.3 | B3 |
